Experimental findings from the supplement of paper PMC10369915 are described below.

This is one part of the list. Rule as the data show it: active = 3.2 or more and inactive = the rest. Most of these values are background signal.

B1: OR4C12_Y71_I67T (peptide)
chain: LTDTVYSSSSA
B2: OTOF_Y254_Q255H (peptide)
chain: GRPMDYHVSIT
B3: OR1D2_Y218_V214M (peptide)
chain: FMIISYVLIIR
B4: OPTN_Y356 (peptide)
chain: KQELVYTNKKL
B5: OR8D4_Y123 (peptide)
chain: MACDRYVAICS
B6: OAT_Y55_Y55H_YF (peptide)
chain: FGAHNHHPLPV
B7: OR1D2_Y218 (peptide)
chain: FVIISYVLIIR
B8: OPA1_Y268_E270K (peptide)
chain: SLIDMYSKVLD
B9: ORC6_Y232_Y232S (peptide)
chain: DLTQDSEEWKR
B10: P3H4_Y181_Q186R (peptide)
chain: ELTAKYLNYYR
B11: OTC_Y55 (peptide)
chain: GEEIKYMLWLS
B12: OR1A2_Y288 (peptide)
chain: LNPFIYSLRNW
B13: OTOF_Y1231 (peptide)
chain: LRRFIYRPPDR
B14: OPA1_Y498_T503K (peptide)
chain: MKALGYFAVVK
B15: OR8D4_Y132_R133K (peptide)
chain: CSPLLYKVIMS
B16: OTC_Y317 (peptide)
chain: DDEVFYSPRSL
B17: OAT_Y55_N54K_YF (peptide)
chain: FGAHKYHPLPV
B18: OSCP1_Y237_K242E (peptide)
chain: KHGGNYVPAPE
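Also: displayed peptides selected on beads carrying the immobilized SH2 domain, with library peptides lacking any tyrosine serving as negative controls.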

The target in the first assay is SHP2 C-SH2 domain E139D. The assay can be described thus: enrichment score (SH2-bound / input frequency) (ratio); bacterial display of known human phosphotyrosine sites (pTyr-Var adds point mutants) read by sequencing; higher = stronger binding; tyrosines were phosphorylated by kinases first. The following applies: peptide library: pTyr-Var.
Regarding B1, the enrichment score is inactive: 1.12.
Turning to B2, the enrichment score was inactive: 1.17.
As for B3, the enrichment score is inactive: 2.03.
On the same count and under the same terms, for B4 the value was inactive: 0.669; for B5, inactive: 1.39; for B6, active: 3.52.
The same measure, in the same setting: the value for B7 was inactive: 1.42; that for B8 was inactive: 0.75.
Still for that read-out and setting: the value for B9 was inactive: 0.42; that for B10 was inactive: 1.23.
In the case of B11, the enrichment score was inactive: 0.741.
Still for that read-out and setting: for B12 the value was inactive: 2.95.
The same measure, in the same setting: the value for B13 was inactive: 0.235.
Same read-out and setting: for B14 the value was inactive: 1.21; for B15, inactive: 0.754; for B16, inactive: 0.741.
For B17, the enrichment score was inactive: 2.78.
Still for that read-out and setting: the value for B18 was inactive: 0.741.

The target of the next assay is SHP2 C-SH2 domain wild-type. Described as above. The following applies: peptide library: pTyr-Var.
As for B1, the enrichment score is inactive: 1.24.
Turning to B2, the enrichment score is inactive: 1.1.
On the same count and under the same terms, for B3 the value was inactive: 1.71.
Same read-out and setting: for B4 the value was inactive: 0.712; for B5, inactive: 1.87; for B6, inactive: 2.61.
Still for that read-out and setting: for B7 the value was inactive: 1.84.
In the case of B8, the enrichment score was inactive: 0.805.
Regarding B9, the enrichment score was inactive: 0.606.
Still for that read-out and setting: for B10 the value was inactive: 0.968; for B11, inactive: 0.67; for B12, inactive: 2.18.
Still for that read-out and setting: for B13 the value was inactive: 0.38.
The same measure, in the same setting: for B14 the value was inactive: 1.2; for B15, inactive: 1.21; for B16, inactive: 0.705.
B17: the enrichment score was inactive: 2.44.
Same read-out and setting: for B18 the value was inactive: 0.679.

In another assay the target is SHP2 N-SH2 domain L43F. The assay is described as above. The following applies: peptide library: pTyr-Var.
B1: the enrichment score was inactive: 0.764.
The same measure, in the same setting: for B2 the value was inactive: 1.
On the same count and under the same terms, for B3 the value was inactive: 1.33; for B4, inactive: 0.595.
Still for that read-out and setting: for B5 the value was inactive: 1.48.
Regarding B6, the enrichment score is active: 3.21.
Still for that read-out and setting: for B7 the value was inactive: 1.46; for B8, inactive: 0.835; for B9, inactive: 0.634.
On to B10, for which the enrichment score is inactive: 0.986.
Still for that read-out and setting: for B11 the value was inactive: 0.946; for B12, active: 3.69.
On the same count and under the same terms, for B13 the value was inactive: 0.346; for B14, inactive: 0.969; for B15, inactive: 0.949.
On the same count and under the same terms, for B16 the value was inactive: 0.664; for B17, inactive: 2.74.
B18: the enrichment score was inactive: 0.467.

For the next assay, the target named is SHP2 N-SH2 domain T42A. The assay is described as above. To be noted: peptide library: pTyr-Var.
On to B1, for which the enrichment score was inactive: 0.782.
The same measure, in the same setting: the value for B2 was inactive: 1.07; that for B3 was inactive: 1.54; that for B4 was inactive: 0.519.
On the same count and under the same terms, for B5 the value was inactive: 1.64; for B6, inactive: 2.13; for B7, inactive: 1.28.
Same read-out and setting: the value for B8 was inactive: 0.782; that for B9 was inactive: 0.457.
In the case of B10, the enrichment score was inactive: 1.14.
Still for that read-out and setting: for B11 the value was inactive: 0.709.
For B12, the enrichment score was inactive: 2.23.
Regarding B13, the enrichment score is inactive: 0.398.
Regarding B14, the enrichment score is inactive: 1.43.
Still for that read-out and setting: for B15 the value was inactive: 0.802; for B16, inactive: 0.582; for B17, inactive: 2.08.
On the same count and under the same terms, the value for B18 was inactive: 0.524.

A further assay addresses SHP2 N-SH2 domain T52S. The assay is described as above. To be noted: peptide library: pTyr-Var.
On to B1, for which the enrichment score is inactive: 0.803.
The same measure, in the same setting: for B2 the value was inactive: 0.95.
For B3, the enrichment score was inactive: 1.94.
As to B4, the enrichment score was inactive: 0.472.
Turning to B5, the enrichment score was inactive: 1.5.
Turning to B6, the enrichment score was inactive: 3.06.
In the case of B7, the enrichment score was inactive: 2.16.
Still for that read-out and setting: for B8 the value was inactive: 0.925; for B9, inactive: 0.536.
The same measure, in the same setting: the value for B10 was inactive: 0.987; that for B11 was inactive: 0.542.
On the same count and under the same terms, for B12 the value was inactive: 3.01; for B13, inactive: 0.413.
Regarding B14, the enrichment score was inactive: 1.52.
On the same count and under the same terms, for B15 the value was inactive: 0.618; for B16, inactive: 0.506; for B17, inactive: 2.55.
The same measure, in the same setting: the value for B18 was inactive: 0.559.

The next assay deals with SHP2 N-SH2 domain wild-type. The assay is described as above. The following applies: peptide library: pTyr-Var.
B1: the enrichment score is inactive: 1.1.
For B2, the enrichment score is inactive: 1.01.
Same read-out and setting: the value for B3 was inactive: 1.61; that for B4 was inactive: 0.664.
Same read-out and setting: for B5 the value was inactive: 0.927; for B6, inactive: 2.76; for B7, inactive: 1.13.
The same measure, in the same setting: the value for B8 was inactive: 0.749; that for B9 was inactive: 0.706.
As for B10, the enrichment score is inactive: 1.28.
Take B11: the enrichment score was inactive: 0.979.
Regarding B12, the enrichment score is inactive: 1.49.
Consider B13, for which the enrichment score was inactive: 0.295.
As for B14, the enrichment score was inactive: 1.49.
Same read-out and setting: the value for B15 was inactive: 1.51.
Regarding B16, the enrichment score was inactive: 0.749.
Still for that read-out and setting: for B17 the value was inactive: 2.36; for B18, inactive: 0.821.
